In CN112745392A (SHANGHAI NOVAMAB BIOPHARMACEUTICALS CO LTD, dated 2021):
Each block holds one binder with its values, some of them ahead of it.

Tests used:
[1] = target: T1, 人CD47 (Jurkat细胞, 高表达人CD47) (human, UniProt Q08722); experiment: flow cytometry competition against hSIRPa(ECD)-Fc-Biotin on Jurkat cells
T1 construct: whole, on cells

[2] = target: T2, hPD-L1(ECD)-Fc (human, UniProt Q9NZQ7 part only); experiment: BLI (Fortebio Red96), Protein A probes, 30℃
T2 construct: extracellular domain; also called 重组人PD-L1; not shown: Fc part not described
T2 sequence (Q9NZQ7 19-238): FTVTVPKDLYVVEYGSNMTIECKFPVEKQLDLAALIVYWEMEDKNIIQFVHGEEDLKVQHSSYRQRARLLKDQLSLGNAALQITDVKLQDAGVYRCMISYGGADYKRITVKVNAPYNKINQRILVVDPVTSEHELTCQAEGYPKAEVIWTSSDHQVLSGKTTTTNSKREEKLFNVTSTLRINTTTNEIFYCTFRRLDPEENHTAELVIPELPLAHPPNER

[3] = target: T3, hCD47(ECD)-Fc (human, UniProt Q08722 part only); experiment: BLI (Fortebio Red96), Protein A probes, 30℃
T3 construct: extracellular domain; not shown: Fc part not described

IC50 [1]: 10.8 nM
B1: 抗PD-L1/CD47双特异性抗体A (bispecific antibody, human IgG4 S228P)
chain: QVQLQESGGGLVQPGGSLRLSCTASGYNLSPSCMGWFRQAPGKGLEGVAFTDADGSTRYADSVKARFTISRDNSKNTLYLQMNSLRAEDTAVYYCAADFFSYCSVVFRASARDKYRGQGTLVTVSS[sequence of human IgG4 Fc with S228P (EU numbers) not given]GGGGSGGGGSGGGGSGGGGSQVQLQESGGGLVQPGGSLRLSCAASGYAYTSDCMGWFRQTPGKGLEGVALIYTPGASTNYADSVKGRFTISQDNSKSTVYLQMNSLRAEDTAMYYCAARRGACSLRLPFFYWGQGTLVTVSS
notes: Tetravalent form: PD-L1 single-domain antibody at the N-terminus, human Fc and flexible linker, CD47 single-domain antibody at the C-terminus; Expressed in CHO-S, purified on Protein A; also called 双抗A; 四价抗体A

IC50 [1]: 8.3 nM
B2: 抗PD-L1/CD47双特异性抗体B (bispecific antibody, human IgG4 S228P)
chain: QVQLQESGGGLVQPGGSLRLSCAASGYAYTSDCMGWFRQTPGKGLEGVALIYTPGASTNYADSVKGRFTISQDNSKSTVYLQMNSLRAEDTAMYYCAARRGACSLRLPFFYWGQGTLVTVSS[sequence of human IgG4 Fc with S228P (EU numbers) not given]QVQLQESGGGLVQPGGSLRLSCTASGYNLSPSCMGWFRQAPGKGLEGVAFTDADGSTRYADSVKARFTISRDNSKNTLYLQMNSLRAEDTAVYYCAADFFSYCSVVFRASARDKYRGQGTLVTVSS
notes: Tetravalent form: CD47 single-domain antibody at the N-terminus, human Fc and flexible linker, PD-L1 single-domain antibody at the C-terminus; also called 双抗B; 四价抗体B

IC50 [1]: 4.91 nM
B3: 抗PD-L1/CD47双特异性抗体D (bispecific antibody, human IgG4 S228P)
chain: QVQLQESGGGLVQPGGSLRLSCAASGYAYTSDCMGWFRQTPGKGLEGVALIYTPGASTNYADSVKGRFTISQDNSKSTVYLQMNSLRAEDTAMYYCAARRGACSLRLPFFYWGQGTLVTVSSGGGGSGGGGSGGGGSGGGGSQVQLQESGGGLVQPGGSLRLSCAASGYAYTSDCMGWFRQTPGKGLEGVALIYTPGASTNYADSVKGRFTISQDNSKSTVYLQMNSLRAEDTAMYYCAARRGACSLRLPFFYWGQGTLVTVSS[sequence of human IgG4 Fc with S228P (EU numbers) not given]QVQLQESGGGLVQPGGSLRLSCTASGYNLSPSCMGWFRQAPGKGLEGVAFTDADGSTRYADSVKARFTISRDNSKNTLYLQMNSLRAEDTAVYYCAADFFSYCSVVFRASARDKYRGQGTLVTVSSGGGGSGGGGSGGGGSGGGGSQVQLQESGGGLVQPGGSLRLSCTASGYNLSPSCMGWFRQAPGKGLEGVAFTDADGSTRYADSVKARFTISRDNSKNTLYLQMNSLRAEDTAVYYCAADFFSYCSVVFRASARDKYRGQGTLVTVSS
notes: dimer through Fc; also called 双抗D

IC50 [1]: 6.23 nM
Kd [2]: 26.6 nM
Kd [3]: 6.15 nM
B4: 抗PD-L1/CD47双特异性抗体C (bispecific antibody, human IgG4 S228P)
chain: QVQLQESGGGLVQPGGSLRLSCTASGYNLSPSCMGWFRQAPGKGLEGVAFTDADGSTRYADSVKARFTISRDNSKNTLYLQMNSLRAEDTAVYYCAADFFSYCSVVFRASARDKYRGQGTLVTVSSGGGGSGGGGSGGGGSGGGGSQVQLQESGGGLVQPGGSLRLSCTASGYNLSPSCMGWFRQAPGKGLEGVAFTDADGSTRYADSVKARFTISRDNSKNTLYLQMNSLRAEDTAVYYCAADFFSYCSVVFRASARDKYRGQGTLVTVSS[sequence of human IgG4 Fc with S228P (EU numbers) not given]GGGGSGGGGSGGGGSGGGGSQVQLQESGGGLVQPGGSLRLSCAASGYAYTSDCMGWFRQTPGKGLEGVALIYTPGASTNYADSVKGRFTISQDNSKSTVYLQMNSLRAEDTAMYYCAARRGACSLRLPFFYWGQGTLVTVSSGGGGSGGGGSGGGGSGGGGSQVQLQESGGGLVQPGGSLRLSCAASGYAYTSDCMGWFRQTPGKGLEGVALIYTPGASTNYADSVKGRFTISQDNSKSTVYLQMNSLRAEDTAMYYCAARRGACSLRLPFFYWGQGTLVTVSS
notes: dimer through Fc; also called 双抗C; 候选双抗C
